Results taken from patent US12201684B2, “Compositions for stimulation of mammalian innate immune resistance to pathogens” (priority 2009, dated 2025).
No end group written: not given here.

Protocol: A highly conserved 22 amino acid segment of flagellin, a known ligand of TLR5, was identified. This amino acid segment was submitted for synthesis at Cell Essentials, Inc., Boston, MA. The peptide was confirmed to be >95% pure based on HPLC and Maldi-TOF mass spectrometry, and its solubility in PBS was confirmed. The synthetic fragment of Flg22 was delivered at 100 μg/ml.

For QRLSTGSRINSAKDDAAGLQIA [Flg22], the “solubility in PBS” value was “confirmed”.
